The whole screen tested about 310,000 compounds, of which about 14,000 (4.5%) showed an effect of 50% or more. Effects have a minus sign here. The list shows a part of the results.
molecular target: human ether-à-go-go-related gene (hERG) potassium channel (human, UniProt Q12809); assay: primary screen, population patch clamp on CHO cells stably expressing hERG
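Further: peak tail current of the secondary pulse compared with the same well before compound.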

human ether-à-go-go-related gene (hERG) potassium channel, sequence (Q12809 whole entry, looked up): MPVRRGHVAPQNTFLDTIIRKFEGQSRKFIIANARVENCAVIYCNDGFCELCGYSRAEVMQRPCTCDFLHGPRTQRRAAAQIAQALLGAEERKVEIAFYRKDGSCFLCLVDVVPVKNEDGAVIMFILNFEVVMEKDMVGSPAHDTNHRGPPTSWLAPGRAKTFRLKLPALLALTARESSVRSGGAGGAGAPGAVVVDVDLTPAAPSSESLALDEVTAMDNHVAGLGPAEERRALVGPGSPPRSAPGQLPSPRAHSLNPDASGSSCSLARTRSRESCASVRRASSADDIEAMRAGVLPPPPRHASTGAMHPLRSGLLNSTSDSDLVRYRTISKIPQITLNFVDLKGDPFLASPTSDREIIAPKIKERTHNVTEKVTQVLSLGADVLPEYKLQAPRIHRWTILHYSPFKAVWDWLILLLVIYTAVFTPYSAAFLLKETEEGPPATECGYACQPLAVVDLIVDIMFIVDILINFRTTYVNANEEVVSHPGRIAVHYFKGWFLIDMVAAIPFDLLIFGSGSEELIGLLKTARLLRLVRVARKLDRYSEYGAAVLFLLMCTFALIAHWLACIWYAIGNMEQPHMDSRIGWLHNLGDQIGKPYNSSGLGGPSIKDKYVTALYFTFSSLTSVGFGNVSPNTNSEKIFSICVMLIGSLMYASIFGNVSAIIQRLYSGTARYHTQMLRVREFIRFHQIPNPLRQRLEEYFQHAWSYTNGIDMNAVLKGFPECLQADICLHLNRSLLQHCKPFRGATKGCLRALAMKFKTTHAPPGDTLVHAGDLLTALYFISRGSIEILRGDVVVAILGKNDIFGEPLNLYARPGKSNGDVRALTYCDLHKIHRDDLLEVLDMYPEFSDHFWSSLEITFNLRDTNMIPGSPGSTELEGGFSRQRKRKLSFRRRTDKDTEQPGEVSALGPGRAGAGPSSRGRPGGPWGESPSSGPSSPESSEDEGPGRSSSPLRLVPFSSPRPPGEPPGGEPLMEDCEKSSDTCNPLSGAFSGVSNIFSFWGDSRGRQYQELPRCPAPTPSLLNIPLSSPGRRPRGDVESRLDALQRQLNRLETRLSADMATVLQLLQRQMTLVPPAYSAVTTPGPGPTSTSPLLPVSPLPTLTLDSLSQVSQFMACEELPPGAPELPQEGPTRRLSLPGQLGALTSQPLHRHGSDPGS

Structure (SMILES) | hERG current change (%, negative = inhibition) at 10uM
O=C(CNS(=O)(=O)c1ccccc1)NCc1ccco1 | 16.1%
CC(C)(C)C(=O)OC/C(N)=N/OC(=O)c1ccc(Cl)cc1 | -10.2%
Nc1ncn[nH]1 | 13.5%
CCOc1ccccc1NC(=O)CCn1ccnc1 | 8.77%
Cc1ccc(NC=C(S(=O)(=O)c2ccccc2)S(=O)(=O)c2ccccc2)c(C)c1 | 11.2%
CCn1cnc2c1c(=O)n(CC(=O)Nc1ccc(C(N)=O)cc1)c(=O)n2Cc1ccccc1 | 13.8%
COc1ccc(Cn2c(=S)[nH]c3ccsc3c2=O)cc1 | 11.5%
COc1ccc(-n2c(=O)[nH]c3cc(C(=O)NCCc4ccc(OC)c(OC)c4)ccc3c2=O)c(OC)c1 | 18.5%
COc1ccc(C(=O)N/N=C/c2ccc(OC(=O)c3cccc4ccccc34)c([N+](=O)[O-])c2)cc1 | 3.57%
COc1ccccc1-c1c(C#N)c(N)nc2c1CCC2 | 0.295%
CC(Oc1ccc2ccc(=O)oc2c1)C(=O)c1ccccc1 (stereo not drawn) | -5.29%
CN1CCN2c3ncccc3Cc3ccccc3C2C1 (stereo not drawn) | -12.9%
O=C(Nc1ccccc1C(=O)O)c1cc(S(=O)(=O)Nc2cccc(F)c2)ccc1Cl | 19.3%
CN(C)S(=O)(=O)c1cc(NC(=O)COC(=O)C2COc3ccccc3O2)ccc1Cl (stereo not drawn) | -2.11%
CC(C)CNC(=O)c1cccc(NC(=O)c2ccc3c(c2)C(=O)N(C)C3=O)c1 | -42.9%
CC1CCCC2(C1)NC(=S)N(c1ccccc1)N2 (stereo not drawn) | 8.73%
Cc1ccc(C)c(SCC(=O)OCC(=O)NCCNC(=O)COC(=O)CSc2cc(C)ccc2C)c1 | 13.6%
NC(=O)[C@@H]1CCOc2c(I)cc([N+](=O)[O-])cc2C(=O)N[C@@H](CO)C(=O)NCC(=O)N1 | 1.74%
COc1cc(CC(=O)O)c([N+](=O)[O-])cc1OC | 2.02%
Cc1c(NC(=O)C(C)OC(=O)/C=C/c2ccccc2)c(=O)n(-c2ccccc2)n1C (stereo not drawn) | 2.86%
O=c1[nH]c2cc3c(cc2cc1CN(CCO)S(=O)(=O)c1ccccc1Cl)OCCO3 | -22.6%
COc1cc(OC)cc(C(=O)NCC(=O)Nc2ccc(-c3ccccc3)cc2)c1 | 1.55%
CCN(CC(=O)Nc1ccc(C)c(S(=O)(=O)N2CCOCC2)c1)Cc1ccccc1 | -47.1%
O=C(Nc1ccc(NC(=O)c2ccc(Cl)cc2Cl)cc1)c1ccc2c(c1)OCO2 | 25%
CCC(=O)NC(=S)Nc1ccc(NC(=O)c2cc3ccccc3o2)c(OC)c1 | 30.7%
CCN1C(=O)[C@H]2[C@@H](c3ccc(C)cc3)N3C(=O)N(c4ccc(C)cc4)C(=O)[C@@]3(Cc3ccccc3)[C@H]2C1=O | 13.2%
c1ccc(C(c2nnnn2Cc2cccs2)N2CCN(C3CCCC3)CC2)cc1 (stereo not drawn) | -46.3%

Structure (SMILES) | hERG current change (%, negative = inhibition) at 10uM
O=C(Nc1ccc(Cl)c(S(=O)(=O)N2CCOCC2)c1)c1n[nH]c(=O)c2ccccc12 | 10.6%
NC(=O)COc1ccccc1C1=NO[C@@](CC(=O)O)(C(=O)Nc2ccc3c(c2)OCCO3)C1 | 22.6%
Cc1ccc(N(C(=O)c2csnn2)C(C(=O)NC2CCCCC2)c2ccccn2)c(C)c1 (stereo not drawn) | -1.94%
Cc1ccc(NC(=O)CN2C(=O)N/C(=C\c3cccnc3)C2=O)cc1 | -6.99%
CN1CCN(c2ccc(S(=O)(=O)N3CCOCC3)cc2)CC1 | 0.122%
CC(=O)Nc1nonc1C(=O)N1CCC(C)CC1 | 0.665%
COc1ccc2c(c1)C(NC(=O)C(F)(F)F)CC2=O (stereo not drawn) | 2.14%
CCOc1ccc(NC(=O)C(c2ccccn2)N(C(=O)CCl)c2ccc(F)cc2)cc1 (stereo not drawn) | -11.9%
CN1CCN(NC(=O)CN2C(=O)/C(=C/c3c(Cl)cccc3Cl)SC2=S)CC1 | -2.16%
O=C(NCc1ccc(-c2nc3ccccc3s2)cc1)c1cc2ccccc2o1 | -1.71%
Cc1ccc(CN2CC[C@H]3C=CCc4cccc(c43)C2)cc1 | -22.1%
N#Cc1nc(COc2ccc(Br)cc2)oc1NCCN1CCOCC1 | -56.6%
CC(=O)NC12CC3CC(C1)CC(C(=O)N1CCN(S(=O)(=O)c4cccc(C(F)(F)F)c4)CC1)(C3)C2 | -19.2%
CN(C)S(=O)(=O)N(CC(=O)Nc1ccccc1)c1ccccc1 | -1.67%
Cc1ccc2[nH]c3c(=O)n(CCCN4CCN(C)CC4)cnc3c2c1 | -37%
CC(=O)c1c(C)[nH]c(C(=O)N2CCCCCC2)c1C | -4.63%
C=CCn1c(C(C)NC(=O)c2ccccc2C)n[nH]c1=S (stereo not drawn) | 12.3%
Cc1ccc(SC(C)C(=O)Nc2ncn[nH]2)cc1 (stereo not drawn) | -6.83%
COc1ccc(C(=O)NCC(c2ccc3c(c2)OCO3)N2CCN(c3ccc(OC)cc3)CC2)cc1 (stereo not drawn) | -25.9%
C[C@H]1C=C(C(=O)NCc2nc3ccccc3[nH]2)O[C@@H](OCc2ccc(CO)cc2)C1 | 4.75%
Cc1cccc(C(=O)NCCCn2ccnc2)c1C | 9.31%
Cc1ccc2c3c(c(SCC(=O)Nc4nonc4C)nc2c1)CCCC3 | 1.22%
CC(/C=N/NC(=O)Cc1cccn1C)=C\c1ccco1 | -13.1%
COc1cccc2cc(C(=O)C3=C(O)C(=O)N(Cc4ccco4)C3c3cccnc3)oc12 (stereo not drawn) | -5.95%
O=C1c2ccc([N+](=O)[O-])cc2NC(c2ccco2)N1/N=C/c1ccco1 (stereo not drawn) | -35%
CCc1nnc(NC2=NCCC2)s1 | 2.96%
CCOc1ccc(-n2ccc(=O)c(C(=O)Nc3ccc(S(=O)(=O)N4CCOCC4)cc3)n2)cc1 | 6.07%
